# According to PubChem BioAssay AID686978 (National Center for Advancing Translational Sciences (NCATS), 2013):
# The whole screen tested about 420,000 compounds, of which about 64,000 (15%) were called active. The shares of active, inactive and inconclusive entries below differ from those in the screen. The call rests on the fitted dose curve; in most records, active means well fitted inhibition curve with a large enough effect; inconclusive means small, poorly fitted or top-dose-only effect; inactive means flat fitted curve, though single readings scatter. Potencies of inconclusive entries are left out as doubtful fits.
# Test: qHTS for Inhibitors of human tyrosyl-DNA phosphodiesterase 1 (TDP1): qHTS in cells in absence of CPT; further: nearly all actives have a fitted effect of over 55% in size
# Conditions: DT40 Tdp1-/- hTDP1 cells, no CPT, ATP luminescence, 48 h; activity change, negative = growth inhibition: at 46.2 µM (top of the series) unless noted
# In short: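 Chicken DT40 Tdp1-/- cells stably complemented with human TDP1 were seeded at 400 cells/well with DMSO in place of 20 nM camptothecin. After compound pinning, cells grew at least 48 hr at 37 °C; viability read by CellTiter-Glo luminescence.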
# On the % scale 0 is the no-effect control and ±100 the full control effect; potency means the concentration at half of the fitted maximal effect; tags describe the fitted curve by direction and shape.
Structure (SMILES),Potency,"activity change, negative = growth inhibition"
O=C(/C=C/c1ccc(Cl)cc1Cl)N1CCN(c2ccccc2[N+](=O)[O-])CC1,"inconclusive [inhibitor, single point]",–
COc1ccc(-n2nc(C(=O)c3cccs3)cc(-c3nc4ccccc4[nH]3)c2=N)cc1,active: 5.8 µM,–
Cc1cc(O)ccc1Nc1nc(-c2cccs2)cs1,inactive,–
COC(=O)N(NC(=O)C(O)(c1ccccc1)c1ccccc1)c1ccccc1,–,inconclusive: -33.1% [inhibitor]
COc1ccc(Br)cc1CNC(=O)C1CCCN(S(=O)(=O)N2CCC(C)CC2)C1 (centres undefined),"inconclusive [inhibitor, single point]",–
CCOC(=O)N1C2=NC(C(=O)OC)=C(C(=O)OC)[C@@H]3N(C)c4ccccc4[C@]23C[C@H]1C(=O)OC,active: 18.4 µM,–
COC(=O)c1cn(CCOc2ccccc2F)c2ccccc12,inactive,–
CC1(OC(=O)C2CCCC2)C(=O)C=C2C=C(c3ccsc3)N(CC3CC3)C=C2C1=O (centres undefined),"inconclusive [inhibitor, single point]",–
CCc1noc(C)c1C(=O)OC(C)C(=O)NCc1ccc(OC)cc1 (centres undefined),inactive,–
Cc1nc(CS(=O)c2ccc(Cl)cc2)cc(NCc2ccc(Cl)cc2Cl)n1 (centres undefined),active: 20.6 µM,–
Cc1cccc2sc(NC(=O)CCNC(=O)c3ccco3)nc12,"inconclusive [inhibitor, single point]",–
Cc1cc(C)nc(N2CCCC(C(=O)Nc3nnc(C(C)(C)C)s3)C2)n1 (centres undefined),"inconclusive [inhibitor, partial curve]",–
Cc1cc(N2CCOCC2)c2c(N)cc(C)c(C)c2n1,"inconclusive [inhibitor, single point]",–
CN1C(=O)C(C)(C)c2cc(S(=O)(=O)N3CCN(c4ccccc4)CC3)ccc21,"inconclusive [inhibitor, single point]",–
Cc1ccccc1C(=O)Nc1ccc(C(=O)N/N=C/c2ccc(O)c(Br)c2)cc1,"inconclusive [inhibitor, single point]",–
COc1ccc([C@H]2/C=C\CN(S(=O)(=O)c3ccc(C)cc3)[C@@H](C)C(=O)N2Cc2ccc(F)cc2)cc1,"inconclusive [inhibitor, single point]",–
COc1ccc2[nH]c(C)c(CCNC(=S)Nc3ccccc3OC)c2c1,active: 23.1 µM,–
CN(C(=O)c1cc2c(s1)-c1ccccc1S(=O)(=O)C2)c1ccccc1F,"inconclusive [inhibitor, single point]",–
O=C(Nc1ccc(F)c(Cl)c1)c1csc([C@H]2C[C@H](O)[C@@H](CO)O2)n1,"inconclusive [inhibitor, partial curve]",–
CCOc1ccccc1NC(=O)CCN1CCN(S(=O)(=O)c2ccc(Br)cc2)CC1,"inconclusive [inhibitor, full curve]",–
CC1(C(=O)NS(=O)(=O)c2ccc(C#N)cc2)CCN1C(=O)C1CCCCC1 (centres undefined),inactive,–
CCOc1ccc2nc(NCCCNS(=O)(=O)c3ccc(F)cc3)c(C#N)cc2c1,–,inconclusive: -32.9% [inhibitor]

Structure (SMILES),Potency,"activity change, negative = growth inhibition"
CCOc1ccc(N2C(=O)CC(N3CCN(c4ccc([N+](=O)[O-])cc4)CC3)C2=O)cc1 (centres undefined),"inconclusive [inhibitor, single point]",–
Clc1cccc(NCc2nnc(SCc3ccc(Cl)cc3Cl)o2)c1,"inconclusive [inhibitor, single point]",–
Cn1ncc(N=Cc2ccccc2)c1C(N)=O,inactive,–
N#CCc1ccc(NC(=O)c2ccccc2C(=O)Nc2ccc(CC#N)cc2)cc1,inactive,–
CC(C)Sc1nc2c([nH]1)c(=N)ncn2Cc1ccccc1,inactive,–
O=Nc1c(O)n(Cc2ccccc2)c2ccccc12,inactive,–
CSc1nc(N2CCN(c3ccccc3Cl)CC2)c2ccccc2n1,"inconclusive [inhibitor, partial curve]",–
CC(=O)Nc1nc2ccc(NC(=O)c3ccco3)cc2s1,active: 18.4 µM,–
COc1cccc(COCCN2CCN(S(=O)(=O)c3ccc(C)cc3)CCC2=O)c1,"inconclusive [inhibitor, single point]",–
COC(=O)c1ccccc1NC(=O)CCCn1nc([N+](=O)[O-])c(Br)c1C,inactive,–
CCN1CCN(C(=O)c2ccc3c(c2)N(Cc2cc(C)ccc2C)C(=O)c2ccccc2S3(=O)=O)CC1,inactive,–
N#CCC(=O)Nc1ccc(C(=O)Nc2cccnc2)cc1,inactive,–
O=S(=O)(NC1CCSc2ccccc21)c1ccc(Cl)nc1 (centres undefined),"inconclusive [inhibitor, single point]",–
CC(C)C[C@@H](CNCC(=O)[C@H](Cc1ccccc1)NC(=O)c1[nH]cnc1C(=O)N[C@H](CN)CC(C)C)NC(=O)c1nc[nH]c1C(=O)N[C@@H](CC(=O)O)C(=O)O,inactive,–
COc1ccccc1C(CNC(=O)CSc1ccc2ccccc2c1)N(C)C (centres undefined),"inconclusive [inhibitor, single point]",–
CC1(C)C[C@H]2C3=CCC4[C@@]5(C)CC[C@H](O)[C@](C)(CO)C5CC[C@@]4(C)[C@]3(C)C[C@@H](O)[C@@]2(CO)[C@@H](O)[C@@H]1O (some centres undefined),"inconclusive [inhibitor, partial curve, poor fit]",–
O=C1NC(=S)NC1=Cc1ccc(Cl)cc1Cl,inactive,–
O=C(c1ccc(Sc2ccccc2)c([N+](=O)[O-])c1)N1CCOCC1,"inconclusive [inhibitor, partial curve]",–
COc1ccc(Cn2cc(CN3CCS(=O)(=O)N(Cc4ccc(-c5cccc(Cl)c5)cc4)C(C)C3=O)nn2)cc1 (centres undefined),active: 25.9 µM,–
CCCSCCCNC(=O)CN1C(=O)COc2ccc(S(=O)(=O)N3CCCCCC3)cc21,"inconclusive [inhibitor, single point]",–
COc1cccc(-c2n[nH]nc2C2=CC(=O)C[C@H](c3ccc(F)cc3)C2)c1,"inconclusive [inhibitor, single point]",–
O=C(Nc1c(O)c2ccccc2[nH]c1=O)c1ccco1,inactive,–
